Measured values as given in publication PMC9911399, “Two distinct binding modes provide the RNA-binding protein RbFox with extraordinary sequence specificity”.
Changes are numbered by the printed parent chain; changes in the protein carry UniProt numbers. This is one part of the list.

T1: RBFOX1 RRM RbFoxmut (Fox-RRM*) (Homo sapiens, UniProt Q9NWB1 109-208, R118D;E147R;N151S;E152T)
T1 sequence: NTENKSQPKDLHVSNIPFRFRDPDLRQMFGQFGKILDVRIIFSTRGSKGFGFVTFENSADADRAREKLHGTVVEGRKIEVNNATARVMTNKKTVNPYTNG

B1: GGAGGCG (DNA:RNA)
RNA: GGGAGACCGGAAUUCAGAUUGUCCGGAGGCGUUAAAUCCCGUCGUAGCCACCA
DNA 1: CAATCTGAATTCCGGTCTCCC
DNA 2: TGGTGGCTACGACGGGATT
B2: ACGUACC (DNA:RNA)
RNA: B1 RNA with G25A, G26C, A27G, G28U, G29A, G31C
DNA 1: CAATCTGAATTCCGGTCTCCC
DNA 2: TGGTGGCTACGACGGGATT
B3: GCCGAGA (DNA:RNA)
RNA: B1 RNA with G26C, A27C, G29A, C30G, G31A
DNA 1: CAATCTGAATTCCGGTCTCCC
DNA 2: TGGTGGCTACGACGGGATT
B4: AUCUAAG (DNA:RNA)
RNA: B1 RNA with G25A, G26U, A27C, G28U, G29A, C30A
DNA 1: CAATCTGAATTCCGGTCTCCC
DNA 2: TGGTGGCTACGACGGGATT
B5: GCACCUA (DNA:RNA)
RNA: B1 RNA with G26C, G28C, G29C, C30U, G31A
DNA 1: CAATCTGAATTCCGGTCTCCC
DNA 2: TGGTGGCTACGACGGGATT
B6: GAUUUCA (DNA:RNA)
RNA: B1 RNA with G26A, A27U, G28U, G29U, G31A
DNA 1: CAATCTGAATTCCGGTCTCCC
DNA 2: TGGTGGCTACGACGGGATT
B7: AAUAUGG (DNA:RNA)
RNA: B1 RNA with G25A, G26A, A27U, G28A, G29U, C30G
DNA 1: CAATCTGAATTCCGGTCTCCC
DNA 2: TGGTGGCTACGACGGGATT
B8: GAGCGAA (DNA:RNA)
RNA: B1 RNA with G26A, A27G, G28C, C30A, G31A
DNA 1: CAATCTGAATTCCGGTCTCCC
DNA 2: TGGTGGCTACGACGGGATT
B9: CCGCAGC (DNA:RNA)
RNA: GGGAGACCGGAAUUCAGAUUGUCCCCGCAGCUUAAAUCCCGUCGUAGCCACCA
DNA 1: CAATCTGAATTCCGGTCTCCC
DNA 2: TGGTGGCTACGACGGGATT
B10: AGGGUUC (DNA:RNA)
RNA: B9 RNA with C25A, C26G, C28G, A29U, G30U
DNA 1: CAATCTGAATTCCGGTCTCCC
DNA 2: TGGTGGCTACGACGGGATT
B11: CAGGGGU (DNA:RNA)
RNA: B9 RNA with C26A, C28G, A29G, C31U
DNA 1: CAATCTGAATTCCGGTCTCCC
DNA 2: TGGTGGCTACGACGGGATT
B12: UUUCAUU (DNA:RNA)
RNA: B9 RNA with C25U, C26U, G27U, G30U, C31U
DNA 1: CAATCTGAATTCCGGTCTCCC
DNA 2: TGGTGGCTACGACGGGATT
B13: GACCUUU (DNA:RNA)
RNA: B9 RNA with C25G, C26A, G27C, A29U, G30U, C31U
DNA 1: CAATCTGAATTCCGGTCTCCC
DNA 2: TGGTGGCTACGACGGGATT
B14: GCGCGGC (DNA:RNA)
RNA: B9 RNA with C25G, A29G
DNA 1: CAATCTGAATTCCGGTCTCCC
DNA 2: TGGTGGCTACGACGGGATT
B15: CUCAUCG (DNA:RNA)
RNA: B1 RNA with G25C, G26U, A27C, G28A, G29U
DNA 1: CAATCTGAATTCCGGTCTCCC
DNA 2: TGGTGGCTACGACGGGATT
B16: UGAGGCU (DNA:RNA)
RNA: B1 RNA with G25U, G31U
DNA 1: CAATCTGAATTCCGGTCTCCC
DNA 2: TGGTGGCTACGACGGGATT
B17: CUCGGGU (DNA:RNA)
RNA: B9 RNA with C26U, G27C, C28G, A29G, C31U
DNA 1: CAATCTGAATTCCGGTCTCCC
DNA 2: TGGTGGCTACGACGGGATT
B18: GAUGAUC (DNA:RNA)
RNA: B9 RNA with C25G, C26A, G27U, C28G, G30U
DNA 1: CAATCTGAATTCCGGTCTCCC
DNA 2: TGGTGGCTACGACGGGATT
B19: GCGUUUA (DNA:RNA)
RNA: B9 RNA with C25G, C28U, A29U, G30U, C31A
DNA 1: CAATCTGAATTCCGGTCTCCC
DNA 2: TGGTGGCTACGACGGGATT
B20: GGCGUCA (DNA:RNA)
RNA: B1 RNA with A27C, G29U, G31A
DNA 1: CAATCTGAATTCCGGTCTCCC
DNA 2: TGGTGGCTACGACGGGATT

Biological target: T1, RBFOX1 RRM RbFoxmut (Fox-RRM*)
Experiment: EMSA; HiTS-Eq, 1 nM pool, 10 min; buffer printed only for the single-RNA assays: 10 mM Tris pH 7.5, 150 mM NaCl, 3.4 mM EDTA, 0.001% NP-40, 30 C
Conditions: tags: His6 N-terminal (pET28a); label: 5' 32P
Method in brief: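 Relative association constants, normalised to the cognate motif, were derived by comparing read counts of each RNA species with those of the control reaction. The RNA sequenced was the free fraction, separated by 8% native PAGE after a 10 min equilibration in 50 µL of 1 nM 5′-radiolabelled RNA (7 randomized nucleotides) with increasing concentrations of purified wild-type or mutant RbFox RRM.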

Binder | binding signal
B1 | 0.12 KA relative to UGCAUGU
B2 | 0.0903 KA relative to UGCAUGU
B3 | 0.127 KA relative to UGCAUGU
B4 | 0.108 KA relative to UGCAUGU
B5 | 0.123 KA relative to UGCAUGU
B6 | 0.0857 KA relative to UGCAUGU
B7 | 0.0878 KA relative to UGCAUGU
B8 | 0.102 KA relative to UGCAUGU
B9 | 0.121 KA relative to UGCAUGU
B10 | 0.198 KA relative to UGCAUGU
B11 | 0.113 KA relative to UGCAUGU
B12 | 0.0945 KA relative to UGCAUGU
B13 | 0.0734 KA relative to UGCAUGU
B14 | 0.132 KA relative to UGCAUGU
B15 | 0.122 KA relative to UGCAUGU
B16 | 0.0954 KA relative to UGCAUGU
B17 | 0.0903 KA relative to UGCAUGU
B18 | 0.0682 KA relative to UGCAUGU
B19 | 0.113 KA relative to UGCAUGU
B20 | 0.145 KA relative to UGCAUGU
